Results from publication PMC4336329 (PLoS ONE, 2015).
In all, about 310,000 compounds went through this assay and about 14,000 (4.5%) showed an effect of 50% or more. The effect is printed as a negative number. This is one part of the list.

biological target: human ether-à-go-go-related gene (hERG) potassium channel (human, UniProt Q12809); assay: primary screen, population patch clamp on CHO cells stably expressing hERG
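Further: peak tail current of the secondary pulse compared with the same well before compound.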

Sequence of human ether-à-go-go-related gene (hERG) potassium channel (Q12809 whole entry, looked up): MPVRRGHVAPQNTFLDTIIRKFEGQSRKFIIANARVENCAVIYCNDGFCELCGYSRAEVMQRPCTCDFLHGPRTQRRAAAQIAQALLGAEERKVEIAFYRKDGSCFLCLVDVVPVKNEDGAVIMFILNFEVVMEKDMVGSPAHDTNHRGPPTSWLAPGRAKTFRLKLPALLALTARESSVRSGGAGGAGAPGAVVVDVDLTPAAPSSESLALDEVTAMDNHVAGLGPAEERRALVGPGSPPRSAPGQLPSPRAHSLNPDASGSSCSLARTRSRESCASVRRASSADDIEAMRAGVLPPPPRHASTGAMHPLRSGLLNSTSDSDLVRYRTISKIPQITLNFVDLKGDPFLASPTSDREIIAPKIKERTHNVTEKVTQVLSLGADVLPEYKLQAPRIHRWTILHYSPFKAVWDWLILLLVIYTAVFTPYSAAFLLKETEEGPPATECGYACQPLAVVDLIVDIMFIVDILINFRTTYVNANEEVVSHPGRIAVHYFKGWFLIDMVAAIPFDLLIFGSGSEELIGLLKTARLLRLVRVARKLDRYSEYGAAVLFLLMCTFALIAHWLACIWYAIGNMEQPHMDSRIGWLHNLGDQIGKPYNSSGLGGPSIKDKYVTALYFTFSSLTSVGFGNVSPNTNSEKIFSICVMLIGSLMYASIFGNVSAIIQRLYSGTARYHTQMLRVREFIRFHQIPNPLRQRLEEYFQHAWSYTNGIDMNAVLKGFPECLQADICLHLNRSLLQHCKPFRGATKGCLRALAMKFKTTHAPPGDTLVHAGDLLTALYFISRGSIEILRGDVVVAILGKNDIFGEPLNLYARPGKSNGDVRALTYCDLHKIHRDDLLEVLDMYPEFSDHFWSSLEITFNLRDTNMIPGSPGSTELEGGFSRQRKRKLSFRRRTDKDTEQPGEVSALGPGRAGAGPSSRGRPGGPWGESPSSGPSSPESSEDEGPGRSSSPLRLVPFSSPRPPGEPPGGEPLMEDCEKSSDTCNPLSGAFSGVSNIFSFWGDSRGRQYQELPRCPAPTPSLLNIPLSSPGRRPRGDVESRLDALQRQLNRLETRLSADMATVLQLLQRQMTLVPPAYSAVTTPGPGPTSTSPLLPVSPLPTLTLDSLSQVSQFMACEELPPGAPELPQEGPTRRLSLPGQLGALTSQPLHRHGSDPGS

Row | SMILES | hERG current change (%, negative = inhibition) at 10uM [%]
1 | COc1cc(OC)c2ccc(=O)oc2c1C(CCN1CCCC(C)C1)c1ccc2c(c1)OCO2 (centres unmarked) | -61
2 | CN(Cc1nc(-c2cnccn2)no1)CC1(c2ccccc2)CC1(C)C (centres unmarked) | 4.2
3 | CC(=O)Nc1ccc(S(=O)(=O)Nc2ccc3ccccc3n2)cc1 | 10.9
4 | CC(C)N1C(=O)CC2(CC[N+](C)(CCOC(=O)C(O)(c3ccccc3)c3ccccc3)CC2)C1=O.[I-] (centres unmarked) | 9.05
5 | COc1ccc(OC)c(C2=Nn3c(nnc3-c3cccc(OC(C)C)c3)SC2)c1 | -8.24
6 | O=C(CCc1ccccc1)NNC(=S)NCc1ccc(Cl)cc1 | 7.88
7 | COc1cccc(N(C(=O)c2snc(C(N)=O)c2N)C(C(=O)NCC2CCCO2)c2ccc(F)cc2)c1 (centres unmarked) | 10.6
8 | CCONc1ncnc2nonc12 | 17.8
9 | CC(C)CC(=O)Nc1ccc(C(=O)NN2C(=O)c3ccccc3C2=O)cc1 | 2.48
10 | Cc1ccccc1Nc1nc2nonc2nc1N1CCOCC1 | -7.99
11 | CCOc1ccccc1N(CC(=O)NCC1CCCO1)C(=O)CCC(=O)Nc1cc(C)on1 (centres unmarked) | 21.6
12 | NNC(=O)COc1cccc(Oc2ccccc2)c1 | 22
13 | CCCC(=O)N1CC2(C)CN(C(=O)CCC)CC(CCC)(C1)C2=O | 9.95
14 | CN(C(=O)CSC1=Nc2ccccc2C2=NC(c3ccccc3)C(=O)N12)C1CCCCC1 (centres unmarked) | -73
15 | CN1CCN(c2ccc(NC(=O)c3ccc4ccccc4c3)cc2)CC1 | -66.1
16 | CCC(C(=O)N1CCC2(CC1)OCCO2)n1c2ccccc2c2nc(=O)cc(C)n21 (centres unmarked) | 5.82
17 | CCOC(=O)C1=C(COC(=O)CNS(=O)(=O)c2ccc(C)cc2)NC(=O)NC1C (centres unmarked) | 18
18 | O=c1n(-c2ccccc2)c(=O)n2n1CCCC2 | 18.6
19 | Cc1nn(CC(=O)N2CCOCC2)c(=O)c2ccccc12 | -3.51
20 | Cn1cc(CN2CCC(C(=O)Nc3cccc(-c4cscn4)c3)CC2)cn1 | 5.33
21 | COc1ccc(/C=C/C(=O)N[C@H](C(=O)O)C(C)C)cc1 | 42.9
22 | COc1ccc(Cn2c(S(=O)(=O)CC(N)=O)nc3ccccc32)cc1[N+](=O)[O-] | -7.44
23 | O=[N+]([O-])c1ccc(N2CCOCC2)c2ccncc12 | -41.5

Row | SMILES | hERG current change (%, negative = inhibition) at 10uM [%]
24 | O=C(COC(=O)c1nc(-c2ccccc2)n(-c2cccc(C(F)(F)F)c2)n1)NCc1cccs1 | -16
25 | N/C(=N\OC(=O)CCC1CCCCC1)c1ccccn1 | -5.76
26 | O=[N+]([O-])c1ccc(O)c(C=Nc2ccc3nc(-c4ccccc4)[nH]c3c2)c1 | 9.15
27 | COC(=O)CNC(=O)C(Cc1c[nH]c2ccccc12)NC(=O)OC(C)(C)C (centres unmarked) | 11
28 | CCC(=O)N(C)CCc1cc2c(c(OC)c1/C=N/Nc1ccc(C(=O)O)cc1)OCO2 | -1.63
29 | Cc1ccccc1C1CCCN(Cc2nc(C3CC3)no2)C1 (centres unmarked) | 4.27
30 | CCCCCn1ccc(=O)c2c(C(F)(F)F)nccc21 | -11.3
31 | COc1ccc(OCCSc2nnc(-c3ccc(OC)cc3)n2N)cc1 | -5.14
32 | COc1ccc(Nc2nc(N)nc(CSC(=S)N3CCC(C)CC3)n2)cc1 | -5.86
33 | CN(C)c1cc2c(c(N(C)C)c1)C(=O)c1ccccc1C2=O | 6.61
34 | COc1ccc2c(C=Nc3c(C)n(C)n(-c4ccccc4)c3=O)c(O)n(Cc3ccco3)c(=O)c2c1 | 3.02
35 | CCc1c(C)sc(NC(=O)c2cnn3cccnc23)c1C#N | 5.01
36 | C/C(=N\NC(=O)c1cc(-c2ccccc2C)nc2ccccc12)c1cccnc1 | -10.3
37 | CCOC(=O)/C(C(=Nc1ccccc1)Nc1ccccc1)=C(\C)O | 7.35
38 | COc1ccc(C=C(c2nc3ccccc3s2)c2nc3ccccc3s2)cc1O | 3.94
39 | Cc1cc([N+](=O)[O-])nn1CCC(=O)Nc1nccs1 | 11.1
40 | COc1ccccc1NC(=O)CSc1nnnn1-c1ccc(C(=O)O)cc1 | 13.3
41 | c1cncc(CNC2=NCCCCC2)c1 | 14.3
42 | CCCCCC(=O)N1CCN(CCN=CC2=C(O)CC(c3ccc(OC)cc3)CC2=O)CC1 (centres unmarked) | -74.1
43 | NC(CC(=O)O)c1cccc(OCc2ccccc2)c1 (centres unmarked) | 5.65
44 | COc1cccc(/C=N/n2c(-c3n[nH]c4c3CCC4)n[nH]c2=S)c1OC | 14.1
45 | Cc1ccc(NC(=O)CN(Cc2ccccc2)S(C)(=O)=O)cc1C | -17
46 | N#Cc1sc(C(N)=O)c(-c2ccccc2)c1-c1ccccc1 | 9.86

Row | SMILES | hERG current change (%, negative = inhibition) at 10uM [%]
47 | CC(=O)Nc1sc(C)c(C)c1C(=O)OCC(=O)NCc1ccc(Cl)cc1 | 4.69
48 | CC1CCN(c2nc(-c3cccnc3)nc3scc(-c4ccccc4)c23)CC1 | 15.4
49 | O=C(NCCCCC(NC(=O)C1CCCCC1)C(=O)O)c1ccccc1 (centres unmarked) | 8.78
50 | CCCNC(=O)c1nn2cc(Br)cnc2c1Br | -69.2
51 | CN(C)/C=C(\C#N)C(=O)N/N=C(\CC(=O)C(F)(F)F)c1ccco1 | 29.3
52 | Cc1cc(C(=O)C(C)OC(=O)c2ccc(NC(=O)CC#N)cc2)c(C)n1-c1ccc(OC(F)F)cc1 (centres unmarked) | 5.26
53 | CC1=CC(C)(C)N(C(=O)CSc2nncn2C)c2ccccc21 | 2.16
54 | O=C(COC(=O)/C=C/c1cccc(Br)c1)NC1CCCCC1 | 15
55 | CCCNC(=O)c1ccccc1C(=O)NC1(C(=O)NCCC)CCCC1 | 19.8
56 | O=C(O)c1cccc(NC(=O)c2ccc3c(c2)C(=O)N(c2cccc([N+](=O)[O-])c2)C3=O)c1 | 23.4
57 | COc1ccc(N2CCN(C(=O)CN(c3ccc(Br)cc3)S(C)(=O)=O)CC2)cc1 | -19.2
58 | O=C(NCCN1CCCC1)C1CCC(=O)N(CCCN2CCOCC2)C1 (centres unmarked) | 14.8
59 | CCOc1ccc(NS(=O)(=O)c2ccc3[nH]c(=O)c(=O)[nH]c3c2)cc1 | 12.5
60 | Cc1ccccc1CNS(=O)(=O)c1csc(C(N)=O)c1 | 12.8
61 | O=C(NCCNC(=O)c1ccc(Br)o1)c1ccc(Br)o1 | -4
62 | CCOC(=O)c1c(C=O)c(C)n(Cc2ccccc2)c1C | -23.2
63 | COc1ccccc1NS(=O)(=O)c1c(C)[nH]c(C)c1C(=O)N1CCCC1 | 19.7
64 | CCOP(=O)(O)c1ccccc1OCCOCCOc1ccccc1P(=O)(O)OCC | 8.94
65 | COc1ccc(OCCCC(=O)N(C)CC(=O)Nc2ccccc2Cl)cc1 | -5.61
66 | CN=c1scc(-c2ccccc2F)n1/N=C/c1ccc[nH]1 | -7.64
67 | Cn1c(=O)c(NC(=O)c2ccccc2)c2n(c1=S)CCCCC2 | -1.47
68 | C/C(=N\NS(=O)(=O)c1ccccc1)c1cc(Cl)cc(Cl)c1O | 8.47
69 | C/C(=N\N=C(N)N)c1ccccc1 | 11.2

Row | SMILES | hERG current change (%, negative = inhibition) at 10uM [%]
70 | COCCn1c(SCC(=O)c2ccccc2)nc2c(c1=O)SC(C)C2 (centres unmarked) | -25.8
71 | CCOC(=O)CNC(=O)COc1coc(CN2CCN(c3ccccc3)CC2)cc1=O | 3.41
72 | Brc1cnc2nc[nH]c2c1 | 24.9
73 | Nc1c(C(=O)N2CCOCC2)oc2ccccc12 | 20.5
74 | CC(=O)N1N=C(c2ccc(Cl)cc2)CC1c1ccc([N+](=O)[O-])cc1 (centres unmarked) | 11.8
75 | COc1cc(NC(=O)CN2C(=O)NC(C)(c3ccccc3)C2=O)c(C)cc1[N+](=O)[O-] (centres unmarked) | -12
76 | NC1=NC(=Nc2ccc(Cl)cc2)c2ccccc21 | -3.81
77 | Cn1c(SCC(=O)Nc2cccc(Br)c2)nnc1-c1cc2ccccc2o1 | 13.2
78 | CN1[C@@H]2CC[C@H]1CC(OC1c3ccccc3CCc3ccccc31)C2.O=C(O)CC(O)(CC(=O)O)C(=O)O (some centres unmarked) | -42.6
79 | O=C(C#Cc1ccccc1)NCc1ccccc1F | -2.39
80 | CCc1nccn1S(=O)(=O)c1ccccc1[N+](=O)[O-] | 3.92
81 | COc1ccc2c(c1)c(C)cc[n+]2Cc1ccccc1.[Cl-] | 23.1
82 | CCOC(=O)c1sc(NC(=O)CCN2CCN(C)CC2)c(C(=O)OCC)c1C | -79
83 | O=C(Nc1cccc(-c2ccc(N3CCCCC3)nn2)c1)c1ccco1 | -28.7
84 | CC(C)CS(=O)(=O)C1=NSC2=NC(=O)/C(=C\c3ccc(OC(=O)c4ccco4)cc3)C(=N)N21 | 10.9
85 | O=[N+]([O-])c1cccc(-c2cn3ccccc3n2)c1 | 12.8
86 | O=C(NC1CC1)C1CCN(C2CCN(C(=O)CSc3ccccc3)CC2)CC1 | -3.98
87 | COc1ccccc1C(O)(C(=O)NNc1cccc(C)c1)c1ccccc1OC | 4.87
88 | COc1ccc(C(=O)C2CCCN(Cc3ccc4nonc4c3)C2)cc1F (centres unmarked) | -41.1
89 | CC1(C)Cc2c(c(-c3ccco3)nc3n[nH]c(N)c23)CO1 | -6.9
